Assay results published in paper PMC7819943, “Rice protein-binding microarrays: a tool to detect cis-acting elements near promoter regions in rice”.
The list shows a part of the results.

Target: T1, OsWOX13 (Oryza sativa, UniProt Q5QMM3 1-267)
T1 sequence: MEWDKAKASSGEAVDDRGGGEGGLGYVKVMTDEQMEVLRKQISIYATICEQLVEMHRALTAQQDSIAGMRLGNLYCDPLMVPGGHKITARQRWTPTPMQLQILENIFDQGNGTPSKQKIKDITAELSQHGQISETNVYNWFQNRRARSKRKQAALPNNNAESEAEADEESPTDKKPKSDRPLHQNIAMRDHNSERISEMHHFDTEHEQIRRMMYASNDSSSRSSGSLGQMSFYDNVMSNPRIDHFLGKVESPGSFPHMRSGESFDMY
Experiment: protein-binding microarray (RPBM); PBS, 2% BSA, 51.3 ng/ul salmon testes DNA, 50 uM zinc acetate, 200 nM TF, 25 C, 1 h; high values mean tight binding
Conditions: protein: recombinant; tags: N-terminal polyhistidine and DsRed monomer fusion (pET32a); label: CyDye5-dUTP incorporated in the synthesized complementary strand; 3' TTTTT single-stranded linker to array surface; dsDNA, one strand shown
How it was run: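 A custom Agilent array was converted to double-stranded form by primer extension with Cy5-dUTP and blocked with 2% BSA. Protein at 200 nM in PBS with 2% BSA, salmon testes DNA and 50 µM zinc acetate was applied for 1 h at 25 °C, followed by washing. The proteins were polyhistidine–DsRed N-terminal fusions of transcription factors, expressed in E. coli BL21-CodonPlus and Ni–NTA-purified. The binding signal is per-feature fluorescence intensity (arbitrary units) from an Axon 4000B scanner.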

| Sequence | binding signal |
| --- | --- |
| AATATTAGTATTAATTGATAAAAGTTCGTCACGCGAGTTACGGAGTCACCTAGTGCAG | 18200 fluorescence intensity (a.u.) |
| TCCCTAATGGCCTAATCTAGGCTCATTTAGGCTCGATCGCCGGAGTCACCTAGTGCAG | 3210 fluorescence intensity (a.u.) |
| TTATATTTAGCAATTAGCAAAAGATAGTTTCACTAACTTGCGGAGTCACCTAGTGCAG | 3560 fluorescence intensity (a.u.) |
| AAACTTATCAATCATGCGTTTTCTTGTTTTCGTGGATCATCGGAGTCACCTAGTGCAG | 19200 fluorescence intensity (a.u.) |
| AGGGAGATTAGATTAGTTAGGAGAAAACGACGAGCAAGGACGGAGTCACCTAGTGCAG | 18600 fluorescence intensity (a.u.) |
| ATGAAATTGTAATTCTATATGATACTTGGATGCTTATATACGGAGTCACCTAGTGCAG | 5930 fluorescence intensity (a.u.) |
| GGCATTCCTCTCAATCAGGCAAAAGGAGAGGGAAATATGGCGGAGTCACCTAGTGCAG | 3960 fluorescence intensity (a.u.) |
| GCCCTTTGTGGCTGCATCATGAACATGATAATTCACAACACGGAGTCACCTAGTGCAG | 3410 fluorescence intensity (a.u.) |
| AGCAAACTGACAGGCGAGGAGAATCAGGCAAATCACCTAGCGGAGTCACCTAGTGCAG | 10100 fluorescence intensity (a.u.) |
| ATAATATAATTATGTAAGATTTTGTTGTAAAGATTTAATTCGGAGTCACCTAGTGCAG | 8060 fluorescence intensity (a.u.) |
| GGTGCAAATTTAAGCCCGATTGAGATGACTTCGTTCTGACCGGAGTCACCTAGTGCAG | 17000 fluorescence intensity (a.u.) |
| TGTAAACTGGTTAGACCCGATTGTTTTGCAGACGGCCTAGCGGAGTCACCTAGTGCAG | 7470 fluorescence intensity (a.u.) |
| AAAACAAATTTTATTATAAATATACGTTTAACTAACTTAGCGGAGTCACCTAGTGCAG | 6070 fluorescence intensity (a.u.) |
| TTAGAAGCCAATTACCTTGATGGCTTAAACCGGGTGAATTCGGAGTCACCTAGTGCAG | 4470 fluorescence intensity (a.u.) |
| ATTAAATTTGGGCTAACTGGCCTCCACACATCCCATATAACGGAGTCACCTAGTGCAG | 11000 fluorescence intensity (a.u.) |
| GTTAATTTTGTTTAATTAATGGTGGAAGCAGCCATCATCACGGAGTCACCTAGTGCAG | 38200 fluorescence intensity (a.u.) |
| GTCGAAACGGGTAATTAACGCAGTGTGTGGGAGGGAGGAGCGGAGTCACCTAGTGCAG | 7630 fluorescence intensity (a.u.) |
| ACAATCTCTTCAATTATATATGTGACATCATACTTTCTATCGGAGTCACCTAGTGCAG | 10600 fluorescence intensity (a.u.) |
| TTCTGACTTGATTATGTGCAACGCGACTGATGCGAATGGGCGGAGTCACCTAGTGCAG | 25700 fluorescence intensity (a.u.) |
| CCAAAACATAAAATTAAAACTGACTTAAATACGGATGATACGGAGTCACCTAGTGCAG | 3740 fluorescence intensity (a.u.) |
| TGATGGGAAAACTTTAAAATTAATTTTGAATTTAAGGTTGCGGAGTCACCTAGTGCAG | 4960 fluorescence intensity (a.u.) |

| Sequence | binding signal |
| --- | --- |
| AAGTGATTGTCCCTACAGCTGCATATCTTTCACTCCTTTACGGAGTCACCTAGTGCAG | 9690 fluorescence intensity (a.u.) |
| GATAATGGTAGTGATTGGTTGAGGCTTGAGAGTAGATGTACGGAGTCACCTAGTGCAG | 30600 fluorescence intensity (a.u.) |
| AACTAACCACTAAATTGCTAGGATTAGTACAGGACGGGAACGGAGTCACCTAGTGCAG | 6570 fluorescence intensity (a.u.) |
| TATATAATATAATTTTAAATTGTAAAATTATAGAGCTAACCGGAGTCACCTAGTGCAG | 16200 fluorescence intensity (a.u.) |
| TTTGATTTGTATTCTGGGTTTCTGGATGTAAATTTGAATACGGAGTCACCTAGTGCAG | 21500 fluorescence intensity (a.u.) |
| CTATTTTAATTTTATTATTGTTATATGGTTTAGCTAAGAACGGAGTCACCTAGTGCAG | 3550 fluorescence intensity (a.u.) |
| TCTCGTAATAGTGTTTAATTAGATTCATTAATCCTTAATTCGGAGTCACCTAGTGCAG | 9590 fluorescence intensity (a.u.) |
| TGGGTATAAATTTAGTTCGTAAACTTAATAAATGTGTGCACGGAGTCACCTAGTGCAG | 5080 fluorescence intensity (a.u.) |
| TTTAATTAACAAGTCGTCTCCTCCTCATCCATCCACCACACGGAGTCACCTAGTGCAG | 18400 fluorescence intensity (a.u.) |
| TGATGATTTTAACTATCTTTTCTCTGACAAGTTCCTTCGACGGAGTCACCTAGTGCAG | 11000 fluorescence intensity (a.u.) |
| TAATATTTAAATTAAACCTATAATCAAGCAGATGATTTATCGGAGTCACCTAGTGCAG | 8840 fluorescence intensity (a.u.) |
| CCAGCAATCCCAATCCCAGAAATTGAATGAATAGTCTTCTCGGAGTCACCTAGTGCAG | 4070 fluorescence intensity (a.u.) |
| CACAGTCCTAATTTCTATAGAACTAATCTACTCGTCCGTCCGGAGTCACCTAGTGCAG | 3270 fluorescence intensity (a.u.) |
| GTATTTGTATGATTGTATCCGTATCTGTACCATCCTAATGCGGAGTCACCTAGTGCAG | 3250 fluorescence intensity (a.u.) |
| ACCCACCCTTCAATTAGCCTGTGAATTACTACTTTCTAATCGGAGTCACCTAGTGCAG | 7460 fluorescence intensity (a.u.) |
| AGTAATTAAAATTTAAGAGGCAAAATTACGTGTGAATTTGCGGAGTCACCTAGTGCAG | 19600 fluorescence intensity (a.u.) |
| TTCATATAATTTATAAGGGACATAATGTAATCACCCTATACGGAGTCACCTAGTGCAG | 10300 fluorescence intensity (a.u.) |
| TGTGATTGTCGAAGGAAGGCAGCAAAACGGTTCGAGGGTGCGGAGTCACCTAGTGCAG | 25300 fluorescence intensity (a.u.) |
| ACTATTTGTCAATCATACTTCTTTCATGATATTCATTTTGCGGAGTCACCTAGTGCAG | 23500 fluorescence intensity (a.u.) |
| ACCAACTAATTGCGCAATCTAACACTCGATCGAGGGCTGTCGGAGTCACCTAGTGCAG | 28900 fluorescence intensity (a.u.) |
| ATTTCTGATTGGTGAGATGGGTGATTCGGTAGGCCATTGGCGGAGTCACCTAGTGCAG | 40100 fluorescence intensity (a.u.) |
